For one data set, the system named is NZB/W F1 mice. Description: body weight in lupus-like disease model on supplemented diet. The note with it: Compound VII-49 0.6 g/kg diet relative to vehicle and 0.12 g/kg diet. The protocol: FIG. 2. Compound VII-49 dose (0.5 g/kg chow), based on prior chow pharmacokinetic (PK) study. A) Mice were fed AIN-76A rodent chow supplemented with Compound VII-49 (0.5 g/kg chow) for 5 days. Compound VII-1 (active metabolite of Compound VII-49) (ng/mL) accumulation was measured from plasma harvest following chow supplementation with Compound VII-49. B) Measurement of Compound VII-1 concentration (Area under the curve=AUC and Cmax) in plasma harvested from Compound VII-49 0.12 g/kg, 0.3 g/kg, and 0.6 g/kg fed mice. C) Body weight over change over time in NZB/W F1 mice fed diets supplemented with vehicle, Compound VII-49 0.12 g/kg, or R509-Tris 0.6 g/kg. Compound VII-1 is the active metabolite of the prodrug compound Compound VII-49.
In order to determine the pharmacokinetics (PK) of Compound VII-49 conversion into Compound VII-1, Mice were fed AIN-76A rodent chow supplemented with Compound VII-49 (0.5 g/kg chow) for 5 days. […] Compound VII-1 concentration (Area under the curve=AUC and Cmax) was measured in different feeding regimes. […] In order to asses the effects of Compound VII-49 on a lupus-like disease model, NZB/W F1 mice were fed diets supplemented with vehicle, Compound VII-49 0.12 g/kg, or Compound VII-49 0.6 g/kg and their change in body weight was measured.

Data set [1] concerns Shp1fl/fl RosaERT2-Cre/+ mouse model of lung inflammation. The note with it: Compound VII-49 0.5 g/kg of chow for approximately 13 days, 21 day study. The protocol: FIG. 1. Tamoxifen-induced Shp1 deletion in hematopoietic cells results in ARDS-like disease in mice. ARDS-like disease model is produced by crossing Shp1^fl/fl to Shp1^fl/flRosa^ERT2-CRE/+ mice. Rosa^ERT2-CRE/+ is expressed under a Tamoxifen inducible promoter. When Tamoxifen is administered to Shp1^fl/flRosa^ERT2-CRE/+ mice CRE recombinase is activated resulting in deletion of Shp1 in hematopoietic cells.
FIG. 3. Evaluation of Compound VII-49 administered in chow in the Shp1fl/fl Rosa^ERT2-Cre/+ mouse model of lung inflammation study design. Tamoxifen is administered at day 1 for a total of 4 days wherein Tamoxifen is administered twice a day at 200 mg/kg/bid (400 mg/kg/day). Following 7%/days of control chow, mice are fed chow supplemented with Compound VII-49 0.5 g/kg of chow for a period of approximately 13 days. Mice were euthanized on day 21.
Tamoxifen-induced Shp1 deletion in hematopoietic cells results in ARDS-like disease in mice. In an effort to generate an ARDS-like disease model, Shp1^fl/fl Rosa^ERT2-CRE/+ obtained from Jackson Laboratories were crossed to Shp1^fl/fl mice. Rosa^ERT2-CRE/+ is under the control of a Tamoxifen inducible promoter. Shp1^fl/fl Rosa^ERT2-CRE/+ mice were administered Tamoxifen to activate CRE recombinase resulting in deletion of Shp1 in all cells that normally express Shp1 (FIG. 1). […]

Data set [2] can be described thus: chow pharmacokinetic (PK) study, plasma Compound VII-1 after Compound VII-49 chow. It is filed as in vivo, Mice. The following applies: Compound VII-49 0.6 g/kg diet relative to 0.12 g/kg or 0.3 g/kg diet.

Structures can show the parent of a compound that is named as a salt.

For `CCO[C@H]1CC[C@H](n2cc(NC(=O)c3csc(-c4cnn(C(C)OP(=O)(O)O)c4)n3)c(-c3nc(F)ccc3F)n2)CC1` (stereo partly drawn) [VII-49, 1-(4-(4-((3-(3,6-difluoropyridin-2-yl)-1-((1r,4r)-4-ethoxycyclohexyl)-1H-pyrazol-4-yl)carbamoyl)thiazol-2-yl)-1H-pyrazol-1-yl)ethyl dihydrogen phosphate tris salt], the “change in body weight” value with NZB/W F1 mice is “increase in body weight”. Also, the “lung inflammation as seen in body weight change” value in data set [1] is recorded as “rescues”. The “R835 (Compound VII-1) concentration (AUC and Cmax) in plasma” value in data set [2] was “highest”.

The values are drawn from US20240382470A1, “Irak Inhibitor for Treating Cytokine Release-Related Conditions Associated With Infection by a Respiratory Virus” (Rigel Pharmaceuticals, Inc., priority 2021, published 2024).
